Substrate in the series: C=CC(=O)Nc1cc(Nc2nccc(-c3cn(C4CC4)c4ccccc34)n2)c(OC)cc1N(C)CCN(C)C
Nature of the series: cells, lysate or membranes named.

Setting [1] is: other: variant *10, substrate aumolertinib.
Where [2] appears, read: other: variant *14, substrate aumolertinib.
[3] abbreviates: other: variant *19, substrate aumolertinib.
[4] abbreviates: other: variant *23, substrate aumolertinib.
The mark [5] stands for this setting: other: variant *16, substrate aumolertinib.
Where [6] appears, read: other: variant *15, substrate aumolertinib.
[7] abbreviates: other: variant *13, substrate aumolertinib.
[8] abbreviates: other: variant *17, substrate aumolertinib.
Setting [9] is: other: variant *18, substrate aumolertinib.
Where [10] appears, read: other: variant *12, substrate aumolertinib.

The record followed here is article PMC11157048, “The influence of drug-induced metabolic enzyme activity inhibition and CYP3A4 gene polymorphism on aumolertinib metabolism” (Frontiers in Pharmacology, 2024).

As a reminder, the Km is the concentration of substrate that gives half-maximal velocity. By kcat is commonly meant the maximal rate divided by the concentration of active sites. The term kcat/Km denotes the turnover number divided by the Michaelis constant.

B1: CYP3A4.10 (Homo sapiens; D174H) (protein)
chain: MALIPDLAMETWLLLAVSLVLLYLYGTHSHGLFKKLGIPGPTPLPFLGNILSYHKGFCMFDMECHKKYGKVWGFYDGQQPVLAITDPDMIKTVLVKECYSVFTNRRPFGPVGFMKSAISIAEDEEWKRLRSLLSPTFTSGKLKEMVPIIAQYGDVLVRNLRREAETGKPVTLKHVFGAYSMDVITSTSFGVNIDSLNNPQDPFVENTKKLLRFDFLDPFFLSITVFPFLIPILEVLNICVFPREVTNFLRKSVKRMKESRLEDTQKHRVDFLQLMIDSQNSKETESHKALSDLELVAQSIIFIFAGYETTSSVLSFIMYELATHPDVQQKLQEEIDAVLPNKAPPTYDTVLQMEYLDMVVNETLRLFPIAMRLERVCKKDVEINGMFIPKGVVVMIPSYALHRDPKYWTEPEKFLPERFSKKNKDNIDPYIYTPFGSGPRNCIGMRFALMNMKLALIRVLQNFSFKPCKETQIPLKLSLGGLLQPEKPVVLKVESRDGTVSGA
For B1, under setting [1], the Michaelis-Menten constant (Km) is 2.314 ± 0.065 µM, the kcat turned out to be 0.0174 s⁻¹ and the catalytic efficiency (kcat/Km) is 7530 M⁻¹ s⁻¹.

B2: CYP3A4.14 (Homo sapiens; L15P) (protein)
chain: MALIPDLAMETWLLPAVSLVLLYLYGTHSHGLFKKLGIPGPTPLPFLGNILSYHKGFCMFDMECHKKYGKVWGFYDGQQPVLAITDPDMIKTVLVKECYSVFTNRRPFGPVGFMKSAISIAEDEEWKRLRSLLSPTFTSGKLKEMVPIIAQYGDVLVRNLRREAETGKPVTLKDVFGAYSMDVITSTSFGVNIDSLNNPQDPFVENTKKLLRFDFLDPFFLSITVFPFLIPILEVLNICVFPREVTNFLRKSVKRMKESRLEDTQKHRVDFLQLMIDSQNSKETESHKALSDLELVAQSIIFIFAGYETTSSVLSFIMYELATHPDVQQKLQEEIDAVLPNKAPPTYDTVLQMEYLDMVVNETLRLFPIAMRLERVCKKDVEINGMFIPKGVVVMIPSYALHRDPKYWTEPEKFLPERFSKKNKDNIDPYIYTPFGSGPRNCIGMRFALMNMKLALIRVLQNFSFKPCKETQIPLKLSLGGLLQPEKPVVLKVESRDGTVSGA
Turning to B2, under setting [2], the Michaelis-Menten constant (Km) was found to be 3.445 ± 0.109 µM, the kcat came to 0.0166 s⁻¹ and the kcat/Km was found to be 4820 M⁻¹ s⁻¹.

B3: CYP3A4.19 (Homo sapiens; P467S) (protein)
chain: MALIPDLAMETWLLLAVSLVLLYLYGTHSHGLFKKLGIPGPTPLPFLGNILSYHKGFCMFDMECHKKYGKVWGFYDGQQPVLAITDPDMIKTVLVKECYSVFTNRRPFGPVGFMKSAISIAEDEEWKRLRSLLSPTFTSGKLKEMVPIIAQYGDVLVRNLRREAETGKPVTLKDVFGAYSMDVITSTSFGVNIDSLNNPQDPFVENTKKLLRFDFLDPFFLSITVFPFLIPILEVLNICVFPREVTNFLRKSVKRMKESRLEDTQKHRVDFLQLMIDSQNSKETESHKALSDLELVAQSIIFIFAGYETTSSVLSFIMYELATHPDVQQKLQEEIDAVLPNKAPPTYDTVLQMEYLDMVVNETLRLFPIAMRLERVCKKDVEINGMFIPKGVVVMIPSYALHRDPKYWTEPEKFLPERFSKKNKDNIDPYIYTPFGSGPRNCIGMRFALMNMKLALIRVLQNFSFKSCKETQIPLKLSLGGLLQPEKPVVLKVESRDGTVSGA
On to B3, for which, under setting [3], the Km came out at 3.625 ± 0.237 µM, the kcat was found to be 0.0193 s⁻¹ and the kcat/Km amounted to 5350 M⁻¹ s⁻¹.

B4: CYP3A4.23 (Homo sapiens; R162W) (protein)
chain: MALIPDLAMETWLLLAVSLVLLYLYGTHSHGLFKKLGIPGPTPLPFLGNILSYHKGFCMFDMECHKKYGKVWGFYDGQQPVLAITDPDMIKTVLVKECYSVFTNRRPFGPVGFMKSAISIAEDEEWKRLRSLLSPTFTSGKLKEMVPIIAQYGDVLVRNLRWEAETGKPVTLKDVFGAYSMDVITSTSFGVNIDSLNNPQDPFVENTKKLLRFDFLDPFFLSITVFPFLIPILEVLNICVFPREVTNFLRKSVKRMKESRLEDTQKHRVDFLQLMIDSQNSKETESHKALSDLELVAQSIIFIFAGYETTSSVLSFIMYELATHPDVQQKLQEEIDAVLPNKAPPTYDTVLQMEYLDMVVNETLRLFPIAMRLERVCKKDVEINGMFIPKGVVVMIPSYALHRDPKYWTEPEKFLPERFSKKNKDNIDPYIYTPFGSGPRNCIGMRFALMNMKLALIRVLQNFSFKPCKETQIPLKLSLGGLLQPEKPVVLKVESRDGTVSGA
Regarding B4, under setting [4], the Km is 4.085 ± 0.391 µM, the turnover number (kcat) came to 0.0194 s⁻¹ and the kcat/Km amounted to 4770 M⁻¹ s⁻¹.

B5: CYP3A4.16 (Homo sapiens; T185S) (protein)
chain: MALIPDLAMETWLLLAVSLVLLYLYGTHSHGLFKKLGIPGPTPLPFLGNILSYHKGFCMFDMECHKKYGKVWGFYDGQQPVLAITDPDMIKTVLVKECYSVFTNRRPFGPVGFMKSAISIAEDEEWKRLRSLLSPTFTSGKLKEMVPIIAQYGDVLVRNLRREAETGKPVTLKDVFGAYSMDVISSTSFGVNIDSLNNPQDPFVENTKKLLRFDFLDPFFLSITVFPFLIPILEVLNICVFPREVTNFLRKSVKRMKESRLEDTQKHRVDFLQLMIDSQNSKETESHKALSDLELVAQSIIFIFAGYETTSSVLSFIMYELATHPDVQQKLQEEIDAVLPNKAPPTYDTVLQMEYLDMVVNETLRLFPIAMRLERVCKKDVEINGMFIPKGVVVMIPSYALHRDPKYWTEPEKFLPERFSKKNKDNIDPYIYTPFGSGPRNCIGMRFALMNMKLALIRVLQNFSFKPCKETQIPLKLSLGGLLQPEKPVVLKVESRDGTVSGA
For the protein B5, under setting [5], the Km is 3.013 ± 0.205 µM, the kcat worked out at 0.023 s⁻¹ and the kcat/Km came out at 7670 M⁻¹ s⁻¹.

B6: CYP3A4.15 (Homo sapiens; R162Q) (protein)
chain: MALIPDLAMETWLLLAVSLVLLYLYGTHSHGLFKKLGIPGPTPLPFLGNILSYHKGFCMFDMECHKKYGKVWGFYDGQQPVLAITDPDMIKTVLVKECYSVFTNRRPFGPVGFMKSAISIAEDEEWKRLRSLLSPTFTSGKLKEMVPIIAQYGDVLVRNLRQEAETGKPVTLKDVFGAYSMDVITSTSFGVNIDSLNNPQDPFVENTKKLLRFDFLDPFFLSITVFPFLIPILEVLNICVFPREVTNFLRKSVKRMKESRLEDTQKHRVDFLQLMIDSQNSKETESHKALSDLELVAQSIIFIFAGYETTSSVLSFIMYELATHPDVQQKLQEEIDAVLPNKAPPTYDTVLQMEYLDMVVNETLRLFPIAMRLERVCKKDVEINGMFIPKGVVVMIPSYALHRDPKYWTEPEKFLPERFSKKNKDNIDPYIYTPFGSGPRNCIGMRFALMNMKLALIRVLQNFSFKPCKETQIPLKLSLGGLLQPEKPVVLKVESRDGTVSGA
As for B6, under setting [6], the Michaelis-Menten constant (Km) stood at 3.540 ± 0.181 µM, the kcat turned out to be 0.0377 s⁻¹ and the kcat/Km turned out to be 10700 M⁻¹ s⁻¹.

B7: CYP3A4.13 (Homo sapiens; P416L) (protein)
chain: MALIPDLAMETWLLLAVSLVLLYLYGTHSHGLFKKLGIPGPTPLPFLGNILSYHKGFCMFDMECHKKYGKVWGFYDGQQPVLAITDPDMIKTVLVKECYSVFTNRRPFGPVGFMKSAISIAEDEEWKRLRSLLSPTFTSGKLKEMVPIIAQYGDVLVRNLRREAETGKPVTLKDVFGAYSMDVITSTSFGVNIDSLNNPQDPFVENTKKLLRFDFLDPFFLSITVFPFLIPILEVLNICVFPREVTNFLRKSVKRMKESRLEDTQKHRVDFLQLMIDSQNSKETESHKALSDLELVAQSIIFIFAGYETTSSVLSFIMYELATHPDVQQKLQEEIDAVLPNKAPPTYDTVLQMEYLDMVVNETLRLFPIAMRLERVCKKDVEINGMFIPKGVVVMIPSYALHRDPKYWTEPEKFLLERFSKKNKDNIDPYIYTPFGSGPRNCIGMRFALMNMKLALIRVLQNFSFKPCKETQIPLKLSLGGLLQPEKPVVLKVESRDGTVSGA
In the case of B7, under setting [7], the Km is 6.015 ± 0.384 µM, the kcat turned out to be 0.00675 s⁻¹ and the kcat/Km is 1120 M⁻¹ s⁻¹.

B8: CYP3A4.17 (Homo sapiens; F189S) (protein)
chain: MALIPDLAMETWLLLAVSLVLLYLYGTHSHGLFKKLGIPGPTPLPFLGNILSYHKGFCMFDMECHKKYGKVWGFYDGQQPVLAITDPDMIKTVLVKECYSVFTNRRPFGPVGFMKSAISIAEDEEWKRLRSLLSPTFTSGKLKEMVPIIAQYGDVLVRNLRREAETGKPVTLKDVFGAYSMDVITSTSSGVNIDSLNNPQDPFVENTKKLLRFDFLDPFFLSITVFPFLIPILEVLNICVFPREVTNFLRKSVKRMKESRLEDTQKHRVDFLQLMIDSQNSKETESHKALSDLELVAQSIIFIFAGYETTSSVLSFIMYELATHPDVQQKLQEEIDAVLPNKAPPTYDTVLQMEYLDMVVNETLRLFPIAMRLERVCKKDVEINGMFIPKGVVVMIPSYALHRDPKYWTEPEKFLPERFSKKNKDNIDPYIYTPFGSGPRNCIGMRFALMNMKLALIRVLQNFSFKPCKETQIPLKLSLGGLLQPEKPVVLKVESRDGTVSGA
Turning to B8, under setting [8], the Michaelis-Menten constant (Km) is 58.283 ± 13.120 µM, the turnover number (kcat) amounted to 0.00535 s⁻¹ and the catalytic efficiency (kcat/Km) worked out at 100 M⁻¹ s⁻¹.

B9: CYP3A4.18 (Homo sapiens; L293P) (protein)
chain: MALIPDLAMETWLLLAVSLVLLYLYGTHSHGLFKKLGIPGPTPLPFLGNILSYHKGFCMFDMECHKKYGKVWGFYDGQQPVLAITDPDMIKTVLVKECYSVFTNRRPFGPVGFMKSAISIAEDEEWKRLRSLLSPTFTSGKLKEMVPIIAQYGDVLVRNLRREAETGKPVTLKDVFGAYSMDVITSTSFGVNIDSLNNPQDPFVENTKKLLRFDFLDPFFLSITVFPFLIPILEVLNICVFPREVTNFLRKSVKRMKESRLEDTQKHRVDFLQLMIDSQNSKETESHKALSDPELVAQSIIFIFAGYETTSSVLSFIMYELATHPDVQQKLQEEIDAVLPNKAPPTYDTVLQMEYLDMVVNETLRLFPIAMRLERVCKKDVEINGMFIPKGVVVMIPSYALHRDPKYWTEPEKFLPERFSKKNKDNIDPYIYTPFGSGPRNCIGMRFALMNMKLALIRVLQNFSFKPCKETQIPLKLSLGGLLQPEKPVVLKVESRDGTVSGA
As for B9, under setting [9], the Km was determined as 5.859 ± 0.286 µM, the kcat is 0.0126 s⁻¹ and the catalytic efficiency (kcat/Km) was found to be 2170 M⁻¹ s⁻¹.

B10: CYP3A4.12 (Homo sapiens; L373F) (protein)
chain: MALIPDLAMETWLLLAVSLVLLYLYGTHSHGLFKKLGIPGPTPLPFLGNILSYHKGFCMFDMECHKKYGKVWGFYDGQQPVLAITDPDMIKTVLVKECYSVFTNRRPFGPVGFMKSAISIAEDEEWKRLRSLLSPTFTSGKLKEMVPIIAQYGDVLVRNLRREAETGKPVTLKDVFGAYSMDVITSTSFGVNIDSLNNPQDPFVENTKKLLRFDFLDPFFLSITVFPFLIPILEVLNICVFPREVTNFLRKSVKRMKESRLEDTQKHRVDFLQLMIDSQNSKETESHKALSDLELVAQSIIFIFAGYETTSSVLSFIMYELATHPDVQQKLQEEIDAVLPNKAPPTYDTVLQMEYLDMVVNETLRLFPIAMRFERVCKKDVEINGMFIPKGVVVMIPSYALHRDPKYWTEPEKFLPERFSKKNKDNIDPYIYTPFGSGPRNCIGMRFALMNMKLALIRVLQNFSFKPCKETQIPLKLSLGGLLQPEKPVVLKVESRDGTVSGA
For B10, under setting [10], the Km came out at 19.773 ± 4.091 µM, the kcat stood at 0.0053 s⁻¹ and the kcat/Km came to 267 M⁻¹ s⁻¹.
